Assay results as given in the antibiotic and cytotoxicity screens of Wong et al. (2023).
The other results are listed elsewhere or left out.

Key:
HSkMC = human skeletal muscle cells; assay: cytotoxicity call (relative viability < 0.9); conditions: 10 µM
HepG2 = assay: cytotoxicity call (relative viability < 0.9); conditions: 10 µM
S. aureus RN4220 = assay: growth inhibition call (relative growth <= 0.2); conditions: 50 µM

| SMILES | cytotoxicity call (HSkMC) | cytotoxicity call (HepG2) | growth inhibition call (S. aureus RN4220) |
| --- | --- | --- | --- |
| C[C@H](CO)N1C[C@H](C)[C@@H](CN(C)C(=O)Cc2ccccc2)OCCCC[C@H](C)Oc2ccc(NC(=O)c3ccccc3)cc2C1=O | inactive | inactive | inactive |
| COc1ccc(cc1)NC(=O)N1CC[C@]2(CC1)CN([C@@H](CO)c1[nH]c3cc(ccc3c12)OC)C(=O)CN1CCOCC1 | inactive | inactive | inactive |
| O=C(C[C@@H]1CC[C@@H](NC(=O)Cc2ccccn2)[C@H](CO)O1)NCCCN1CCOCC1 | inactive | inactive | inactive |
| CN1CCN(CCCN2c3ccccc3Sc3ccc(C(F)(F)F)cc32)CC1.Cl.Cl | inactive | active | inactive |
| O=C(C[C@H]1C[C@H]2c3cc(NC(=O)Nc4ccccc4)ccc3O[C@H]2[C@H](CO)O1)NCCN1CCCCC1 | inactive | inactive | inactive |
| CO[C@H]1O[C@H](COC(=O)NCCCCCC(=O)NO)[C@@H](OC(=O)c2ccccc2)[C@H](OC(=O)Nc2ccccc2-c2ccccc2)[C@@H]1OC(=O)Nc1ccccc1-c1ccccc1 | inactive | active | inactive |
| Cc1ccc(C)c(S(N)(=O)=O)c1 | inactive | inactive | inactive |
| COc1ccc(CN(C)C[C@H]2Oc3ccc(NS(C)(=O)=O)cc3C(=O)N([C@@H](C)CO)C[C@H]2C)cc1 | inactive | inactive | inactive |
| C[C@H](CO)N1C[C@H](C)[C@@H](CN(C)CC2CC2)OCCCC[C@H](C)Oc2ccc(NC(=O)Nc3ccc(F)cc3)cc2C1=O | inactive | inactive | inactive |
| C[C@@H]1CCCCO[C@H](CN(C)C(=O)Nc2ccc3c(c2)OCO3)[C@H](C)CN([C@@H](C)CO)C(=O)c2cc(NC(=O)CCC(F)(F)F)ccc2O1 | inactive | inactive | inactive |
| O=C(NCCCO)C(=O)NC[C@H]1COc2ccccc2O1 | inactive | inactive | inactive |
| C[C@@H]1CN([C@H](C)CO)C(=O)Cc2cc(NC(=O)Nc3ccccc3)ccc2O[C@H]1CN(C)C(=O)Nc1cccc2ccccc12 | inactive | inactive | inactive |
| CC(C)NC(=O)Nc1ccc2c(c1)CC(=O)N([C@@H](C)CO)C[C@H](C)[C@@H](CN(C)C(=O)NC1CCCCC1)O2 | inactive | inactive | inactive |
| C[C@@H]1CCCCO[C@@H](CN(C)S(=O)(=O)c2cccs2)[C@H](C)CN([C@@H](C)CO)C(=O)c2cc(NS(=O)(=O)c3ccc(Cl)cc3)ccc2O1 | inactive | inactive | inactive |
| CN(C)CCCNC(=O)C[C@H]1CC[C@@H]2[C@@H](COc3ccc(NC(=O)NC4CCCC4)cc3C(=O)N2C)O1 | inactive | inactive | inactive |
| C[C@@H]1CCCCO[C@@H](CN(C)C(=O)Nc2ccc3c(c2)OCO3)[C@H](C)CN([C@@H](C)CO)C(=O)c2cc(NC(=O)Cc3ccccc3)ccc2O1 | inactive | inactive | inactive |
| CO[C@H]1CN(C)C(=O)c2ccc(NS(=O)(=O)CC(F)(F)F)cc2OC[C@H](C)N(Cc2nccs2)C[C@H]1C | inactive | inactive | inactive |
| O=C(C[C@@H]1CC[C@H]2[C@@H](COC[C@H](O)CN2S(=O)(=O)c2ccc(Cl)cc2)O1)N[C@H]1CCN(Cc2ccccc2)C1 | inactive | inactive | inactive |
| C[C@H](CO)N1C[C@H](C)[C@H](CN(C)Cc2ccc(Cl)c(Cl)c2)Oc2ccc(NS(=O)(=O)c3ccc(F)cc3)cc2CC1=O | inactive | inactive | inactive |
| Cc1ccc(S(=O)(=O)N[C@H]2CC[C@H](CC(=O)NCc3ccc(Cl)c(Cl)c3)O[C@@H]2CO)cc1 | inactive | inactive | inactive |
| O=C(C[C@@H]1CC[C@H](NC(=O)CN2CCOCC2)[C@@H](CO)O1)NCCc1ccncc1 | inactive | inactive | inactive |
| C[C@H]1CN([C@@H](C)CO)C(=O)c2cccc(NC(=O)CCCCCC(=O)Nc3ccccc3N)c2O[C@H]1CN(C)C(=O)Nc1ccc(C(F)(F)F)cc1 | inactive | inactive | inactive |
| Cc1ccc2c(Br)cc(Br)c(OC(=O)c3ccccc3)c2n1 | inactive | active | inactive |
| Cn1nnnc1SCC(=O)Nc1ncccn1 | inactive | inactive | inactive |
| C[C@@H]1CN([C@H](C)CO)C(=O)c2cc(NC(=O)Nc3ccc(F)cc3)ccc2O[C@@H](C)CCCCO[C@H]1CN(C)S(=O)(=O)c1ccc(F)cc1 | inactive | active | inactive |
| C=CCC[C@@H](Cc1ccc(F)cc1)C(=O)OC[C@@H](NC(=O)[C@@H](CC=C)CC(=O)N(CCO)Cc1ccccc1)C(C)(C)C | inactive | inactive | inactive |
| Cc1noc(C)c1NC(=O)N(C)C[C@@H]1Oc2c(NC(=O)C3CCOCC3)cccc2C(=O)N([C@@H](C)CO)C[C@@H]1C | inactive | inactive | inactive |
